# Test results published in the supplement of paper PMC8728848.
# Some of the results follow.
# B1: rAAL-I144G (Agrocybe aegerita), Q6WY08 (protein)
# chain: MQGVNIYNISAGTSVDLAAPVTTGDIVTFFSSALNLNAGAGNPNNTTLNLFAENGAYLLHIAFRLQENVIIFNSRQPDGPWLVEQRVSDVANQFAGIDGKAMVTVFDHGDKYQVVINEKTVIQYTKQISGLTLSLSYNATEETSGFSTVVEAVTYTGLALEHHHHHH
# What was measured:
# Assay in all cases: glycan array binding signal (z-score within array); higher = stronger binding
# Details in all cases: glycan notation: IUPAC condensed, linker removed; mutation: I144G
# Glc(b1-4)Glc = target: Glc(b1-4)Glc
# In short: (§1)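 The binding signal is a Z-score computed within each array. Data were drawn from 3228 arrays in the Consortium for Functional Glycomics database, restricted to those with a known protein sequence. Scores were averaged over arrays of the same protein sequence at different concentrations or buffers, and over linkers, and negative values can be taken as non-binding.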
# Glc(b1-6)Glc = target: Glc(b1-6)Glc
# In short: as §1
# GlcA(b1-3)Gal = target: GlcA(b1-3)Gal
# In short: as §1
# GlcA(b1-3)GlcNAc = target: GlcA(b1-3)GlcNAc
# In short: as §1
# GlcA(b1-6)Gal = target: GlcA(b1-6)Gal
# In short: as §1
# [1] = target: GlcA3S(b1-3)Gal(b1-4)GlcNAc(b1-2)Man
# In short: as §1
# [2] = target: GlcA3S(b1-3)Gal(b1-4)GlcNAc(b1-3)Gal(b1-4)Glc
# In short: as §1
# [3] = target: GlcNAc(a1-3)Gal(b1-4)GlcNAc
# In short: as §1
# [4] = target: GlcNAc(a1-4)Gal(b1-3)GlcNAc
# In short: as §1
# [5] = target: GlcNAc(a1-4)Gal(b1-4)GalNAc
# In short: as §1
# [6] = target: GlcNAc(a1-4)Gal(b1-4)GlcNAc
# In short: as §1
# [7] = target: GlcNAc(a1-4)Gal(b1-4)GlcNAc(b1-3)Gal(b1-4)Glc
# In short: as §1
# [8] = target: GlcNAc(a1-4)Gal(b1-4)GlcNAc(b1-3)Gal(b1-4)GlcNAc
# In short: as §1
# [9] = target: GlcNAc(a1-4)Gal(b1-4)GlcNAc(b1-3)Gal(b1-4)GlcNAc(b1-3)Gal(b1-4)GlcNAc
# In short: as §1
# [10] = target: GlcNAc(a1-4)Gal(b1-4)GlcNAc(b1-3)Gal(b1-4)[Fuc(a1-3)]GlcNAc(b1-3)Gal(b1-4)[Fuc(a1-3)]GlcNAc
# In short: as §1
# [11] = target: GlcNAc(a1-6)Gal(b1-4)GlcNAc
# In short: as §1
# [12] = target: GlcNAc(b1-2)Gal(b1-3)GalNAc
# In short: as §1
# [13] = target: GlcNAc(b1-2)Man(a1-3)[GlcNAc(b1-2)Man(a1-6)]Man(b1-4)GlcNAc(b1-4)GlcNAc
# In short: as §1
# [14] = target: GlcNAc(b1-2)Man(a1-3)[GlcNAc(b1-2)Man(a1-6)]Man(b1-4)GlcNAc(b1-4)[Fuc(a1-6)]GlcNAc
# In short: as §1
# [15] = target: GlcNAc(b1-2)Man(a1-3)[GlcNAc(b1-4)][GlcNAc(b1-2)Man(a1-6)]Man(b1-4)GlcNAc(b1-4)GlcNAc
# In short: as §1
# [16] = target: GlcNAc(b1-2)Man(a1-3)[GlcNAc(b1-4)][GlcNAc(b1-2)Man(a1-6)]Man(b1-4)GlcNAc(b1-4)[Fuc(a1-6)]GlcNAc
# In short: as §1
# [17] = target: GlcNAc(b1-2)[GlcNAc(b1-4)]Man(a1-3)[GlcNAc(b1-2)Man(a1-6)]Man(b1-4)GlcNAc(b1-4)GlcNAc
# In short: as §1
# [18] = target: GlcNAc(b1-2)[GlcNAc(b1-4)]Man(a1-3)[GlcNAc(b1-4)][GlcNAc(b1-2)Man(a1-6)]Man(b1-4)GlcNAc(b1-4)GlcNAc
# In short: as §1
# [19] = target: GlcNAc(b1-2)[GlcNAc(b1-4)]Man(a1-3)[GlcNAc(b1-4)][GlcNAc(b1-2)[GlcNAc(b1-6)]Man(a1-6)]Man(b1-4)GlcNAc(b1-4)GlcNAc
# In short: as §1
# [20] = target: GlcNAc(b1-2)[GlcNAc(b1-4)]Man(a1-3)[GlcNAc(b1-4)][GlcNAc(b1-2)[GlcNAc(b1-6)]Man(a1-6)]Man(b1-4)GlcNAc(b1-4)[Fuc(a1-6)]GlcNAc
# In short: as §1
# [21] = target: GlcNAc(b1-2)[GlcNAc(b1-6)]Man(a1-6)[GlcNAc(b1-2)Man(a1-3)]Man(b1-4)GlcNAc(b1-4)GlcNAc
# In short: as §1
# [22] = target: GlcNAc(b1-2)[GlcNAc(b1-6)]Man(a1-6)[GlcNAc(b1-2)Man(a1-3)]Man(b1-4)GlcNAc(b1-4)[Fuc(a1-6)]GlcNAc
# In short: as §1
# [23] = target: GlcNAc(b1-2)[GlcNAc(b1-6)]Man(a1-6)[GlcNAc(b1-4)][GlcNAc(b1-2)Man(a1-3)]Man(b1-4)GlcNAc(b1-4)GlcNAc
# In short: as §1
# GlcNAc(b1-3)Fuc = target: GlcNAc(b1-3)Fuc
# In short: as §1
# GlcNAc(b1-3)Gal = target: GlcNAc(b1-3)Gal
# In short: as §1
# [24] = target: GlcNAc(b1-3)Gal(b1-3)GalNAc
# In short: as §1
# GlcNAc(b1-3)Gal(b1-4)Glc = target: GlcNAc(b1-3)Gal(b1-4)Glc
# In short: as §1
# [25] = target: GlcNAc(b1-3)Gal(b1-4)GlcNAc
# In short: as §1
# [26] = target: GlcNAc(b1-3)Gal(b1-4)GlcNAc(b1-2)Man(a1-3)[GlcNAc(b1-3)Gal(b1-4)GlcNAc(b1-2)Man(a1-6)]Man(b1-4)GlcNAc(b1-4)GlcNAc
# In short: as §1
# [27] = target: GlcNAc(b1-3)Gal(b1-4)GlcNAc(b1-2)Man(a1-3)[GlcNAc(b1-3)Gal(b1-4)GlcNAc(b1-2)Man(a1-6)]Man(b1-4)GlcNAc(b1-4)[Fuc(a1-6)]GlcNAc
# In short: as §1
# [28] = target: GlcNAc(b1-3)Gal(b1-4)GlcNAc(b1-2)[GlcNAc(b1-3)Gal(b1-4)GlcNAc(b1-6)]Man(a1-6)[GlcNAc(b1-3)Gal(b1-4)GlcNAc(b1-2)Man(a1-3)]Man(b1-4)GlcNAc(b1-4)GlcNAc
# In short: as §1
# [29] = target: GlcNAc(b1-3)Gal(b1-4)GlcNAc(b1-3)Gal(b1-4)GlcNAc
# In short: as §1
# [30] = target: GlcNAc(b1-3)Gal(b1-4)GlcNAc(b1-3)Gal(b1-4)GlcNAc(b1-2)Man(a1-3)[GlcNAc(b1-3)Gal(b1-4)GlcNAc(b1-3)Gal(b1-4)GlcNAc(b1-2)Man(a1-6)]Man(b1-4)GlcNAc(b1-4)GlcNAc
# In short: as §1
# [31] = target: GlcNAc(b1-3)Gal(b1-4)GlcNAc(b1-3)Gal(b1-4)GlcNAc(b1-2)Man(a1-3)[GlcNAc(b1-3)Gal(b1-4)GlcNAc(b1-3)Gal(b1-4)GlcNAc(b1-2)Man(a1-6)]Man(b1-4)GlcNAc(b1-4)[Fuc(a1-6)]GlcNAc
# In short: as §1
# [32] = target: GlcNAc(b1-3)Gal(b1-4)GlcNAc(b1-3)Gal(b1-4)GlcNAc(b1-2)[GlcNAc(b1-3)Gal(b1-4)GlcNAc(b1-3)Gal(b1-4)GlcNAc(b1-6)]Man(a1-6)[GlcNAc(b1-3)Gal(b1-4)GlcNAc(b1-3)Gal(b1-4)GlcNAc(b1-2)Man(a1-3)]Man(b1-4)GlcNAc(b1-4)[Fuc(a1-6)]GlcNAc
# In short: as §1
# [33] = target: GlcNAc(b1-3)Gal(b1-4)GlcNAc(b1-3)Gal(b1-4)GlcNAc(b1-3)Gal(b1-4)GlcNAc(b1-2)Man(a1-3)[GlcNAc(b1-3)Gal(b1-4)GlcNAc(b1-3)Gal(b1-4)GlcNAc(b1-3)Gal(b1-4)GlcNAc(b1-2)Man(a1-6)]Man(b1-4)GlcNAc(b1-4)GlcNAc
# In short: as §1
# [34] = target: GlcNAc(b1-3)Gal(b1-4)GlcNAc(b1-3)Gal(b1-4)GlcNAc(b1-3)Gal(b1-4)GlcNAc(b1-2)Man(a1-3)[GlcNAc(b1-3)Gal(b1-4)GlcNAc(b1-3)Gal(b1-4)GlcNAc(b1-3)Gal(b1-4)GlcNAc(b1-2)Man(a1-6)]Man(b1-4)GlcNAc(b1-4)[Fuc(a1-6)]GlcNAc
# In short: as §1
# [35] = target: GlcNAc(b1-3)Gal(b1-4)GlcNAc(b1-3)Gal(b1-4)GlcNAc(b1-3)Gal(b1-4)GlcNAc(b1-2)[GlcNAc(b1-3)Gal(b1-4)GlcNAc(b1-3)Gal(b1-4)GlcNAc(b1-3)Gal(b1-4)GlcNAc(b1-6)]Man(a1-6)[GlcNAc(b1-3)Gal(b1-4)GlcNAc(b1-3)Gal(b1-4)GlcNAc(b1-3)Gal(b1-4)GlcNAc(b1-2)Man(a1-3)]Man(b1-4)GlcNAc(b1-4)[Fuc(a1-6)]GlcNAc
# In short: as §1
# [36] = target: GlcNAc(b1-3)Gal(b1-4)GlcNAc(b1-3)Gal(b1-4)GlcNAc(b1-3)Gal(b1-4)GlcNAc(b1-3)Gal(b1-4)GlcNAc(b1-2)Man(a1-3)[GlcNAc(b1-3)Gal(b1-4)GlcNAc(b1-3)Gal(b1-4)GlcNAc(b1-3)Gal(b1-4)GlcNAc(b1-3)Gal(b1-4)GlcNAc(b1-2)Man(a1-6)]Man(b1-4)GlcNAc(b1-4)GlcNAc
# In short: as §1
# [37] = target: GlcNAc(b1-3)Gal(b1-4)GlcNAc(b1-3)Gal(b1-4)GlcNAc(b1-3)Gal(b1-4)GlcNAc(b1-3)Gal(b1-4)GlcNAc(b1-2)Man(a1-3)[GlcNAc(b1-3)Gal(b1-4)GlcNAc(b1-3)Gal(b1-4)GlcNAc(b1-3)Gal(b1-4)GlcNAc(b1-3)Gal(b1-4)GlcNAc(b1-2)Man(a1-6)]Man(b1-4)GlcNAc(b1-4)[Fuc(a1-6)]GlcNAc
# In short: as §1
binder,measurement,setting,value
B1,glycan array binding signal (z-score),Glc(b1-4)Glc,-0.143
same,glycan array binding signal (z-score),Glc(b1-6)Glc,-0.183
same,glycan array binding signal (z-score),GlcA(b1-3)Gal,-0.104
same,glycan array binding signal (z-score),GlcA(b1-3)GlcNAc,-0.117
same,glycan array binding signal (z-score),GlcA(b1-6)Gal,-0.173
same,glycan array binding signal (z-score),[1],11.8
same,glycan array binding signal (z-score),[2],9.46
same,glycan array binding signal (z-score),[3],-0.063
same,glycan array binding signal (z-score),[4],-0.157
same,glycan array binding signal (z-score),[5],-0.147
same,glycan array binding signal (z-score),[6],-0.123
same,glycan array binding signal (z-score),[7],-0.082
same,glycan array binding signal (z-score),[8],-0.061
same,glycan array binding signal (z-score),[9],-0.204
same,glycan array binding signal (z-score),[10],-0.118
same,glycan array binding signal (z-score),[11],-0.19
same,glycan array binding signal (z-score),[12],-0.178
same,glycan array binding signal (z-score),[13],-0.093
same,glycan array binding signal (z-score),[14],-0.062
same,glycan array binding signal (z-score),[15],-0.176
same,glycan array binding signal (z-score),[16],-0.15
same,glycan array binding signal (z-score),[17],-0.124
same,glycan array binding signal (z-score),[18],-0.038
same,glycan array binding signal (z-score),[19],-0.163
same,glycan array binding signal (z-score),[20],-0.103
same,glycan array binding signal (z-score),[21],-0.095
same,glycan array binding signal (z-score),[22],-0.035
same,glycan array binding signal (z-score),[23],-0.2
same,glycan array binding signal (z-score),GlcNAc(b1-3)Fuc,-0.027
same,glycan array binding signal (z-score),GlcNAc(b1-3)Gal,-0.162
same,glycan array binding signal (z-score),[24],-0.103
same,glycan array binding signal (z-score),GlcNAc(b1-3)Gal(b1-4)Glc,-0.03
same,glycan array binding signal (z-score),[25],-0.045
same,glycan array binding signal (z-score),[26],-0.093
same,glycan array binding signal (z-score),[27],-0.082
same,glycan array binding signal (z-score),[28],-0.075
same,glycan array binding signal (z-score),[29],-0.156
same,glycan array binding signal (z-score),[30],-0.059
same,glycan array binding signal (z-score),[31],-0.019
same,glycan array binding signal (z-score),[32],0.072
same,glycan array binding signal (z-score),[33],-0.137
same,glycan array binding signal (z-score),[34],-0.003
same,glycan array binding signal (z-score),[35],0.072
same,glycan array binding signal (z-score),[36],-0.098
same,glycan array binding signal (z-score),[37],-0.13
